Ki data for two substances are collected here from patent US20260327262A1, “BICYCLIC PEPTIDE LIGANDS SPECIFIC FOR EPHA2” (BicycleTx Limited, priority 2019, published 2026).

pKi: −log10 of the molar value.

This assay has as its target human EphA2 (Homo sapiens, UniProt P29317). The experiment in a line: Competition Binding Assay (fluorescence polarisation, competition with fluorescent tracer BCY90). How it is done:
Peptides without a fluorescent tag were tested in competition with a peptide with a fluorescent tag and a known Kd.
Peptides were diluted to an appropriate concentration in assay buffer as described in the direct binding assay with a maximum of 5% DMSO, then serially diluted 1 in 2. […] Measurements were conducted, however the gain was determined prior to the first measurement. Data analysis was in Systat Sigmaplot version 12.0 where the mP values were fit to a user defined cubic equation to generate a Ki value: • f=ymax+(ymin−ymax)/Lig*((Lig*((2*((Klig+Kcomp+Lig+Comp−Prot*c)^2−3*(Kcomp*(Lig−Prot*c)+Klig*(Comp−Prot*c)+Klig*Kcomp))^0.5*COS(ARCCOS((−2*(Klig+Kcomp+Lig+Comp−Prot*c)^3+9*(Klig+Kcomp+Lig+Comp−Prot*c)*(Kcomp*(Lig−Prot*c)+Klig*(Comp−Prot*c)+Klig*Kcomp)−27*(−1*Klig*Kcomp*Prot*c))/(2*((((Klig+Kcomp+Lig+Comp−Prot*c)^2−3*(Kcomp*(Lig−Prot*c)+Klig*(Comp−Prot*c)+Klig*Kcomp))^3)^0.5)))/3))−(Klig+Kcomp+Lig+Comp−Prot*c)))/((3*Klig)+((2*((Klig+Kcomp+Lig+Comp−Prot*c)^2−3*(Kcomp*(Lig−Prot*c)+Klig*(Comp−Prot*c)+Klig*Kcomp))^0.5*COS(ARCCOS((−2*(Klig+Kcomp+Lig+Comp−Prot*c)^3+9*(Klig+Kcomp+Lig+Comp−Prot*c)*(Kcomp*(Lig−Prot*c)+Klig*(Comp−Prot*c)+Klig*Kcomp)−27*(−1*Klig*Kcomp*Prot*c))/(2*((((Klig+Kcomp+Lig+Comp−Prot*c)^2−3*(Kcomp*(Lig−Prot*c)+Klig*(Comp−Prot*c)+Klig*Kcomp))^3)^0.5)))/3))−(Klig+Kcomp+Lig+Comp−Prot*c)))). […]

One may read the pKi as the Ki on a negative log10 scale, so that one unit is a factor of ten.

Chain of human EphA2 (P29317 24-976): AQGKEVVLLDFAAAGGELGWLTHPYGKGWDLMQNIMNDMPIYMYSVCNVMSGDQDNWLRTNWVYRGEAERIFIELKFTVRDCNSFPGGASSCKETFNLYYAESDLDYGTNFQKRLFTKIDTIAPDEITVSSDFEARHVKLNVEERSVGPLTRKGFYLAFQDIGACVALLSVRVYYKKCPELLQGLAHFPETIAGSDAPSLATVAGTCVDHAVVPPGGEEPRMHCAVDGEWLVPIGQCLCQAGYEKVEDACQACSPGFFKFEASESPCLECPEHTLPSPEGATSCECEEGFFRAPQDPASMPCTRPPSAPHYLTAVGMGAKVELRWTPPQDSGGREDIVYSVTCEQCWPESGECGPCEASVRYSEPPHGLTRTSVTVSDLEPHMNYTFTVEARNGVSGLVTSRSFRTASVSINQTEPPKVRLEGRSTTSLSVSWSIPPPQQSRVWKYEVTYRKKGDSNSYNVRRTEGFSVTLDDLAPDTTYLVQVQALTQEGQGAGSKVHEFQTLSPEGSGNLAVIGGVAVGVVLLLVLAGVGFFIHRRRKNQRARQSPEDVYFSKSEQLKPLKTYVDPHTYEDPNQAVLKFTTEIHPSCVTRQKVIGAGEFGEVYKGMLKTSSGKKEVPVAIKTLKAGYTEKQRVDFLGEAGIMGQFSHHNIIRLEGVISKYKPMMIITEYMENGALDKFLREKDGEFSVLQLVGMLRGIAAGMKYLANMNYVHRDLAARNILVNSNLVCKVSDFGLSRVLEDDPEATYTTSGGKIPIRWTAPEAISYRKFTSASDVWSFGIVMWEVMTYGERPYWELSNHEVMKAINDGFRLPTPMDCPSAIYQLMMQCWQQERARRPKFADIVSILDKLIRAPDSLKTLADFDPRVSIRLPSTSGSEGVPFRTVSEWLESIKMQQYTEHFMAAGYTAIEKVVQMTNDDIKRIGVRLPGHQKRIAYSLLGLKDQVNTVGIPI

In turn, “A[HArg]DCi[HyP]LVNPLCiiL[His1Me]P[dD]W[HArg]Ciii [BCY13918]” gave a pKi of 8.58.

Turning to “A[HArg]DCi[HyP]LVNPLCiiL[His3Me]P[dD]W[HArg]Ciii [BCY13917]”, the pKi is 8.77.
